For assay [1], the target named is T1, Vps8ΔN-TAP (C-terminal domain of Vps8, from residue 451, C-terminal TAP tag) (yeast (genomic locus of BY4741/BY4733 strains)) (UniProt P39702).
T1 sequence: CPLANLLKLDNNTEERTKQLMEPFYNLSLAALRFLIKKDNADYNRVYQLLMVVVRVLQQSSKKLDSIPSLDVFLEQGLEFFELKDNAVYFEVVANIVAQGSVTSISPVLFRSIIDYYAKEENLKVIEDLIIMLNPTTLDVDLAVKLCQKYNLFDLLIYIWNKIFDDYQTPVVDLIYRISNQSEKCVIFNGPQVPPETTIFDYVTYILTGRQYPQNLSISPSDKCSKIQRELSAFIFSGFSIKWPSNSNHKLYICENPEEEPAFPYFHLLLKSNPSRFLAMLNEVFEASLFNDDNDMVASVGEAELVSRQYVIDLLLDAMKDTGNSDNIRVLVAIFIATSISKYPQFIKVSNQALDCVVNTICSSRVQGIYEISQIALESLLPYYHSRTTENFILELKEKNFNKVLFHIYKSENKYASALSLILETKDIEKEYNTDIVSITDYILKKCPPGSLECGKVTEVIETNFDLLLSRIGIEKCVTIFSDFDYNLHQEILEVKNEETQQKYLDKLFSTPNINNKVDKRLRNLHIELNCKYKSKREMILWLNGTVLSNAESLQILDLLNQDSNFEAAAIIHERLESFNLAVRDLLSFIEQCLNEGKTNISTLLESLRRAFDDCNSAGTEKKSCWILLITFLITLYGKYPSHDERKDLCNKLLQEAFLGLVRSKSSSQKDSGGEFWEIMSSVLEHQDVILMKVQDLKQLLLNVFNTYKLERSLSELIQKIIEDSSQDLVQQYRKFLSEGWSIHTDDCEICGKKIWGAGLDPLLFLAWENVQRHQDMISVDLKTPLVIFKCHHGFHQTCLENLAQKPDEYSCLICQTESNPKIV
The assay is described as follows: tandem affinity purification + glycerol gradient centrifugation; large-scale purification of overexpressed CORVET or ΔNTD-CORVET via Vps8-TAP on IgG beads (buffer with 0.15% NP-40), TEV eluate on a linear 10%-40% glycerol gradient, 18 h, 4°C; fractions on SDS-PAGE, Coomassie.

The target of assay [2] is T2, Vps8-TAP (full-length Vps8, C-terminal TAP tag) (yeast (genomic locus of BY4741/BY4733 strains)) (UniProt P39702).
T2 sequence: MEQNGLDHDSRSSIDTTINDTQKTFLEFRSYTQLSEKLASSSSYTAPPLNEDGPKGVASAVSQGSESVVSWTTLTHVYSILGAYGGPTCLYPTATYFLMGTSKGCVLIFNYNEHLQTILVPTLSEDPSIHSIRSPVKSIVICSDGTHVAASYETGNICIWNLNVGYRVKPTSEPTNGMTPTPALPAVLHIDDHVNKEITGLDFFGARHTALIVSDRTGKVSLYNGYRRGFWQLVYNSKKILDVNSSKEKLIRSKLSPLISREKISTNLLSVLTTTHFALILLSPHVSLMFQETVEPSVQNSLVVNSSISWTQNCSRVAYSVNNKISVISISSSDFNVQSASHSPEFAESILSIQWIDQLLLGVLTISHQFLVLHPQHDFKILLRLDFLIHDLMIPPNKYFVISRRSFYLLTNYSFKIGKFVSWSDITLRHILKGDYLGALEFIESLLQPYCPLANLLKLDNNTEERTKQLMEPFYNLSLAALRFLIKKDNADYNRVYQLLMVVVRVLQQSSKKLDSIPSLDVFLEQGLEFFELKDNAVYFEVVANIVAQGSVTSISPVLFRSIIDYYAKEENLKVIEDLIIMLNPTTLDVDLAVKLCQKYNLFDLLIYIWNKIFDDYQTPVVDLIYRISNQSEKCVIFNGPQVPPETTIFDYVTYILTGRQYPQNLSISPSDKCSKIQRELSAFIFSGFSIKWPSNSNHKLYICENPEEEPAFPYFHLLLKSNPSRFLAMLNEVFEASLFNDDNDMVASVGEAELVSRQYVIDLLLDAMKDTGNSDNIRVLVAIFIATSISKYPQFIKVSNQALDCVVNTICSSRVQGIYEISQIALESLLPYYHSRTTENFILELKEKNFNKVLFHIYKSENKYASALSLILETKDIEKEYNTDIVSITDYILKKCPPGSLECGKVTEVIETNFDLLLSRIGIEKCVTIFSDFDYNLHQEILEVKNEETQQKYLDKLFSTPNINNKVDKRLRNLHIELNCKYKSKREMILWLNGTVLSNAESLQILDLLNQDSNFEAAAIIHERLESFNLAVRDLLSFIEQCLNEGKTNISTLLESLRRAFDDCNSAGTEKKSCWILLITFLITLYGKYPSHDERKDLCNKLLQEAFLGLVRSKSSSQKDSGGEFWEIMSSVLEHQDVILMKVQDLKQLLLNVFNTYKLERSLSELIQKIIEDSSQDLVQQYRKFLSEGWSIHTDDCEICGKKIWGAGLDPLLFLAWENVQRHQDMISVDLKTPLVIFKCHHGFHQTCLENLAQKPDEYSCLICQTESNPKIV
The assay is described as follows: co-IP; small-scale TAP purification: C-terminally TAP-tagged Vps8 or Vps3 (full-length or truncated) captured from yeast lysate (50 mM HEPES/KOH pH 7.4, 300 mM NaCl, 0.15% NP-40, 2 mM MgCl2, 1 mM DTT) on IgG beads, 1.5 h at 4°C; eluted with glycine pH 2.5 or TEV protease; Western blot with anti-Cbp, anti-HA, anti-Vps11; also with overproduced Vps8ΔN and from vps21Δ and vps21Δ ypt52Δ ypt53Δ ypt7Δ strains.

In assay [3] the target is T1, Vps8ΔN-TAP (C-terminal domain of Vps8, from residue 451, C-terminal TAP tag) (yeast (genomic locus of BY4741/BY4733 strains)). The description is as above.
For assay [4], the target named is T3, Vps8ΔC-TAP (N-terminal domain of Vps8, up to residue 450, C-terminal TAP tag) (yeast (genomic locus of BY4733 strains)) (UniProt P39702).
T3 sequence: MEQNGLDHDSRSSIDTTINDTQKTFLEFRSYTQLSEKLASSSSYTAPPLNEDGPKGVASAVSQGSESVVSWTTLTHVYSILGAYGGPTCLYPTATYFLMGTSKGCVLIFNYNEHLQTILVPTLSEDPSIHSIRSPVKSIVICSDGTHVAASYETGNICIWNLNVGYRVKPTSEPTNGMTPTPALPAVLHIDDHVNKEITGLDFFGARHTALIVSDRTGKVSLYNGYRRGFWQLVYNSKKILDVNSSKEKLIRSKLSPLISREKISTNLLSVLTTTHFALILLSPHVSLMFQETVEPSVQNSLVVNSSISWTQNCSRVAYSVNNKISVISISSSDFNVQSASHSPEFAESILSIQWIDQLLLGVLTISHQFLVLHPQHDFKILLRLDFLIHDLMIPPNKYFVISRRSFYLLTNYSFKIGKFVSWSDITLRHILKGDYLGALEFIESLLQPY
The assay is described as above.

Results are given in words; binding and its absence hold for the method and conditions named. For some of these results: Binding seen in cells or lysates may run through a third protein. Some results given as binding are weak or reduced against the parent protein; the word gives no strength. Where a sequence is shown, tags or fusion partners need not be part of it.

B1: Vps3ΔN-GFP (Vps3 from residue 427, GFP tag) (domain or fragment, UniProt P23643 427-1011)
chain: EFKEKIFNKLRLEPLTHSDNKFRIERERAFVEESYEEKTSLIVYNNLGIHLLVPTPMVLRFTSCEESEIDNIEDQLKKLAKKDLTKFEHIEAKYLMSLLLFLMTLHYDHIEDEVMKKWCDFSDKVDIRILFYMFGWKVYSEIWCFHGLINIVERLKSLKLTNKCENILKMLLMMKNELKKKNKTGLLTNDFDDIMKTIDITLFKLRLEKKETITVDMFERESYDEIIREINLHDDKLPRIELLIEIYKEKGEYLKALNLLREAGDYISLVSFIEENLKKLPEDYIKERIADDLLLTLKQGDENTEECAIKKVLKILDMACINKNDFLNKIPAEETSLKVSFIEQLGVQNSNDSKFLFNYYLAKLREIINQSNIWSILGDFIKEYKDDFAYDKTDITNFIHIKLKHSLQCENFSKYYEKCENLKSENEKDDEFINFTFDEISKIDKEHILTLLFFPNELTNWVSSEELLKIYLSFNDFRSVEKYIGKQNLVAVMKQYLDISSLNYSVELVTNLLQRNFELLDDTDIQLKILETIPSVFPVQTISELLLKVLIKYQEKKEESNLRKCLLKNQISISDELSRNFDSQG
Take B1: the binding entry in assay [1] is on record as “binds”.

B2: Vps3-3HA (full-length Vps3, C-terminal 3xHA tag) (protein, UniProt P23643 1-1011)
chain: MVKKKTNNDKGKEVKENEGKLDIDSESSPHERENDKKKTEDDSLRATESEETNTHNANPNETVRADKFSQEESRPIEDSPHTDKNTAQESCQPSSAEDNVINTDITSLNEKTSTNDEQEKGLPLKISEGPFTISTLLDNVPSDLIYTCCEAYENHIFLGTTTGDLLHYFELERGNYMLVSQTKFDAESNSKIDKILLLPKVEGALILCDNELVLFILPEFAPRPNTTRLKGISDVVICNFSRSSKAYRIYAFHAEGVRLLKISADSLVLTKAFNFKLIDKACAHEETLMVSKLNSYELINLKSSQVIPLFRISETDEDLEPIITSFNEQSEFLVCSGGGSYDSGAMALVVNHHGDIIKGTIVLKNYPRNVIVEFPYIIAESAFQSVDIYSALPSEKSQLLQSITTSGSDLKISKSDNVFTNTNNSEEFKEKIFNKLRLEPLTHSDNKFRIERERAFVEESYEEKTSLIVYNNLGIHLLVPTPMVLRFTSCEESEIDNIEDQLKKLAKKDLTKFEHIEAKYLMSLLLFLMTLHYDHIEDEVMKKWCDFSDKVDIRILFYMFGWKVYSEIWCFHGLINIVERLKSLKLTNKCENILKMLLMMKNELKKKNKTGLLTNDFDDIMKTIDITLFKLRLEKKETITVDMFERESYDEIIREINLHDDKLPRIELLIEIYKEKGEYLKALNLLREAGDYISLVSFIEENLKKLPEDYIKERIADDLLLTLKQGDENTEECAIKKVLKILDMACINKNDFLNKIPAEETSLKVSFIEQLGVQNSNDSKFLFNYYLAKLREIINQSNIWSILGDFIKEYKDDFAYDKTDITNFIHIKLKHSLQCENFSKYYEKCENLKSENEKDDEFINFTFDEISKIDKEHILTLLFFPNELTNWVSSEELLKIYLSFNDFRSVEKYIGKQNLVAVMKQYLDISSLNYSVELVTNLLQRNFELLDDTDIQLKILETIPSVFPVQTISELLLKVLIKYQEKKEESNLRKCLLKNQISISDELSRNFDSQG
As to B2, the binding entry in assay [2] is “binds”; in assay [3], “binds”; in assay [4] it was “no binding”.

Values taken from publication PMC3688683, “The N-Terminal Domains of Vps3 and Vps8 Are Critical for Localization and Function of the CORVET Tethering Complex on Endosomes” (PLoS ONE, 2013).
